Hit rate of the full screen: of about 310,000 compounds, about 14,000 (4.5%) showed an effect of 50% or more. Effects have a minus sign here. Some of the results follow.
target: human ether-à-go-go-related gene (hERG) potassium channel (human, UniProt Q12809); test: primary screen, population patch clamp on CHO cells stably expressing hERG
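Also: peak tail current of the secondary pulse compared with the same well before compound.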

Sequence of human ether-à-go-go-related gene (hERG) potassium channel (Q12809 whole entry, looked up): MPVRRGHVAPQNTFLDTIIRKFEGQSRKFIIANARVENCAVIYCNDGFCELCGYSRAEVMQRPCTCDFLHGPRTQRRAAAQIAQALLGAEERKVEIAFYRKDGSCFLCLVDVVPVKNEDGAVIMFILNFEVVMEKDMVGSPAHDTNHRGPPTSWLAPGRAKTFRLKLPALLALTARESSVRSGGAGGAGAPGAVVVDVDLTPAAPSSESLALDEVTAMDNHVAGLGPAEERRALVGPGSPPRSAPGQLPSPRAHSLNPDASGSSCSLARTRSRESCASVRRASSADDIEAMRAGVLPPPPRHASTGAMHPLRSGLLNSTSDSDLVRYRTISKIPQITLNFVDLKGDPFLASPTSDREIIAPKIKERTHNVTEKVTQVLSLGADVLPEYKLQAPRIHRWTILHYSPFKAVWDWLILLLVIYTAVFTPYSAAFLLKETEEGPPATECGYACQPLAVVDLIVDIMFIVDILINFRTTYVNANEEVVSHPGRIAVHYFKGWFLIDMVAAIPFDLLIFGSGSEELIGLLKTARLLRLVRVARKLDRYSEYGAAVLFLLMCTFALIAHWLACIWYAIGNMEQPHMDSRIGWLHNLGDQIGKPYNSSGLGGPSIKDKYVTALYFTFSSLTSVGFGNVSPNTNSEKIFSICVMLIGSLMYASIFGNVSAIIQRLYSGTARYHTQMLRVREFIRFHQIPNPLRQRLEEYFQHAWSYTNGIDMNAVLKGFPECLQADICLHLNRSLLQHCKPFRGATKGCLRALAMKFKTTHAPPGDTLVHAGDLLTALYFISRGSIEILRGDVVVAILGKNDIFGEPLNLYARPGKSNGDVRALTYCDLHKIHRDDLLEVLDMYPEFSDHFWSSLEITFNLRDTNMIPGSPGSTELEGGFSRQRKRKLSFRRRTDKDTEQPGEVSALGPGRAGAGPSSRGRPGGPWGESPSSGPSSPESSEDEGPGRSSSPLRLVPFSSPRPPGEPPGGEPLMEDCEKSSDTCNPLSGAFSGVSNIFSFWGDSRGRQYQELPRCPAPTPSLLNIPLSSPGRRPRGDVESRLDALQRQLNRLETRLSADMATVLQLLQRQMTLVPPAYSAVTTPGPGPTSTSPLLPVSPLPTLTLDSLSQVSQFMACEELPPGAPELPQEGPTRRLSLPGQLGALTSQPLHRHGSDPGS

Point of comparison: `COC(=O)[C@]1(C)CCC[C@@]2(C)C3CC[C@]4(OC(C)=O)C[C@@]3(CCC21)CC4=NO` (some centres unmarked), “hERG current change (%, negative = inhibition) at 10uM” value -8.17%. Against it:
- COC(=O)c1ccc(CO/N=C/c2ccc(OC)cc2)o1 — lower, -13.4%
- Cc1nc2c(cc1NC(=O)c1ccccc1)nc(C)n2Cc1ccccc1 — higher, 4.1%
- COc1cccc(NC(=S)/C(=C(\[O-])c2cc(C)n(-c3ccccc3F)c2C)[n+]2ccc(N(C)C)cc2)c1 — higher, 12.4%
- O=C(O)CCCC(=O)Nc1cccc(C(F)(F)F)c1 — higher, 0.293%
- Cc1cc2oc(C(=O)Nc3nonc3C)c(C)c2cc1Cl — higher, 24.6%
- Cc1ccc2c(c1)N(CC(=O)NCc1cccs1)C(=O)C(C)O2 (centres unmarked) — higher, 14.1%
- CS(=O)(=O)N(CC(=O)Nc1ccccc1C(=O)N1CCCC1)c1ccc2c(c1)OCO2 — higher, 26.3%
- NC(=S)NNc1cccc2cccnc12 — higher, 28.8%
- CCc1nc(N2CCN(C(C)=O)CC2)c2c3c(sc2n1)CC(C(C)(C)C)CC3 (centres unmarked) — lower, -25.3%
- COc1ccc(C(=O)Nc2cccc(C(=O)N3CCN(C)CC3)c2)cc1 — higher, -5.53%
- COc1ccccc1NC(=O)CN1CC(=O)Nc2ccccc21 — higher, 20.5%
- CCS(=O)(=O)NCCc1csc(C)n1 — higher, 11.2%
- Cc1ccc(S(=O)(=O)Nc2ccc(-n3c(C)nc4ccccc4c3=O)cc2)cc1 — lower, -49.4%
- CC(=O)Nc1cccc(C(=O)/C=C/c2ccc(N(C)C)cc2)c1 — higher, 3.1%
- Cc1cc(N2CCCCCC2)nc(-c2ccccc2O)n1 — higher, 3.03%
- CN1C(=O)CC(C(=O)O)SC1=Nc1cc(Cl)cc(Cl)c1 (centres unmarked) — higher, 6.2%
- COc1ccccc1CNC(=O)CSc1ccc(Br)cc1 — higher, -3.01%
- CN(C)/C=N/c1nc2nccc(-c3ccc(Cl)cc3)n2n1 — higher, 16.4%
- COc1ccc(Cl)cc1N(CC(=O)N1CCCCCC1)S(C)(=O)=O — higher, 2.3%
- CCOc1ccccc1N(C(=O)Nc1ccc(Cl)cc1)C1=NC(C)CS1 (centres unmarked) — higher, 8.88%
- O=C(Nc1ccc2c(c1)OCO2)c1ccc(S(=O)(=O)N2CCCC2)cc1 — higher, 22.1%
- COC(=O)CCC(=O)CN.Cl — higher, 13.5%
- COc1ccccc1Cc1nc(-c2ccc(Br)o2)no1 — higher, -0.174%
- Cc1cc(N)n2ncc(-c3cccc(Br)c3)c2n1 — higher, -2.75%
- CC(=O)Nc1c(NC(C)(C)C)c2ccccc2oc1=O — higher, 33.9%
- COC(=O)c1ccc(/C=N/NC(=O)CC(=O)NC(C)C)cc1 — higher, 1.63%
- Cc1nccc(-c2ccc(-n3c(C)ccc3C)cc2)n1 — higher, -6.29%
- O=C(COC(=O)C1=COCCO1)Nc1ccc(Oc2ccccc2)cc1 — lower, -27.7%
- COC(=O)CSc1nc2ccc(C)cc2[nH]1 — higher, 15.1%
- CCOC(=O)C1=C(CN2CCCCCC2)NC(=O)NC1c1ccc2c(c1)OCO2 (centres unmarked) — lower, -48.2%
- CCN(CC)CCNCC(=O)Nc1ccc(Oc2ccccc2)cc1 — lower, -70.5%
- O=C(CN1CCN(c2ccccc2F)CC1)Nc1ccccc1F — higher, -1.86%
- O=C(OCC1CC(c2ccccc2)=NO1)c1ccc(Cl)cc1 (centres unmarked) — higher, 18.6%
- O=C(C1=C[C@H](c2ccccc2)C[C@H](OCCCCO)O1)N1CCOCC1 — higher, -6.4%
- COC(=O)CNC(c1ccccc1)c1cc(Br)ccc1NS(=O)(=O)c1ccc(C)cc1 (centres unmarked) — higher, 2.43%
- Brc1ccc2[nH]ncc2c1 — higher, 2.52%
- COc1ccc(N/C=C\C(=O)c2ccc(Br)cc2)cc1OC — higher, 2.41%
- CCN1CCN(c2cc(C)c3cc(NC(=O)c4cnccn4)ccc3n2)CC1 — lower, -16.2%
- Cc1ccccc1C(NC(N)=O)c1ccccc1 (centres unmarked) — higher, 0.289%
- CCC(SCC(=O)OC)C(=O)Nc1nnc(C(C)C)s1 (centres unmarked) — higher, 5.78%
- COc1ccccc1CNC(=O)Cn1nc(C)c([N+](=O)[O-])c1C — higher, 16.7%
- CC1=C(C)CC(C(=O)NNC(=O)c2csc3c2CCC(C(C)(C)C)C3)C(C(=O)O)C1 (centres unmarked) — higher, 10.9%
- COc1ccccc1OCCSc1nnc(CNC(=O)c2ccco2)n1C — higher, 21.8%
- CCOc1ccc(NC(=O)c2cc3cc4ccc(C)cc4nc3o2)cc1 — higher, 20.6%
- Cc1cc(C)nc(SCCN2CCCCC2)n1 — higher, 10.5%
- CC(=O)C1=C(c2ccccc2)NC(=O)NC1c1ccccc1 (centres unmarked) — higher, 10.9%

— PMC4336329 (PLoS ONE, 2015)
